In publication PMC12153800:
These are yes or no findings as the source states them, for the method shown. For some of these results: Binding seen in cells or lysates may run through a third protein. Some entries that bind do so weakly or less than the wild type. Where a sequence is shown, tags or fusion partners need not be part of it. Blank lines part the entries; values can stand above or below the binder they belong to.

Amino acid sequences for entries named in this document (tags omitted). Residues count along the entry.
UniProt Q9EQD0, residues 27-585: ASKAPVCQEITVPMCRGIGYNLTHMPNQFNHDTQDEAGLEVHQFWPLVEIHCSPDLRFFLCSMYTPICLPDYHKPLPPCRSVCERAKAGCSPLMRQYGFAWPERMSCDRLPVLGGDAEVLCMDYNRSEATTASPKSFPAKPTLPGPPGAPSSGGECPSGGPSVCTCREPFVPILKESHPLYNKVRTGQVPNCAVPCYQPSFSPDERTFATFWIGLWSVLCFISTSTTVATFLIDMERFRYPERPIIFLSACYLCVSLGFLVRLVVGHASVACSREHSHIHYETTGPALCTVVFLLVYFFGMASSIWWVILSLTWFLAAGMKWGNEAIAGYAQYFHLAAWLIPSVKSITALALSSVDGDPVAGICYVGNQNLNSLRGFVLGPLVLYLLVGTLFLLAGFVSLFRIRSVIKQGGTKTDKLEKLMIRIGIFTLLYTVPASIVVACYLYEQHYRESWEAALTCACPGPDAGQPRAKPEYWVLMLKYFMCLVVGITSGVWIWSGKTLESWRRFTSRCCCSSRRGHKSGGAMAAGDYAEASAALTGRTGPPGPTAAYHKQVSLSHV

What was measured:
[1] = target: HiBiT-FZD5-mCherry (NCI-H1703 cells) (mouse) (UniProt Q9EQD0); test: confocal microscopy of fluorescent ligand on live cells; NCI-H1703 cells stably expressing HiBiT-FZD(4,5,8,10)-mCherry incubated with eGFP-Wnt conditioned medium (1 h in the methods, 3 h in the legend of Figure 1A), then imaged
[2] = target: T1, HiBiT-FZD4-mCherry (mouse) (UniProt Q61088); test: FRET or BRET; NanoBiT/BRET association kinetics on live U-2 OS cells stably expressing low levels of HiBiT-FZD-mCherry; LgBiT and Vivazine added; four concentrations of eGFP-Wnt conditioned medium (Wnt3a up to 15.2 nM, Wnt5a up to 17.3 nM, Wnt16 up to 24 nM); 37 °C, DMEM with 5% FBS and 10 mM HEPES, read every 80 s for 300 min; kinetic Kd
T1 sequence: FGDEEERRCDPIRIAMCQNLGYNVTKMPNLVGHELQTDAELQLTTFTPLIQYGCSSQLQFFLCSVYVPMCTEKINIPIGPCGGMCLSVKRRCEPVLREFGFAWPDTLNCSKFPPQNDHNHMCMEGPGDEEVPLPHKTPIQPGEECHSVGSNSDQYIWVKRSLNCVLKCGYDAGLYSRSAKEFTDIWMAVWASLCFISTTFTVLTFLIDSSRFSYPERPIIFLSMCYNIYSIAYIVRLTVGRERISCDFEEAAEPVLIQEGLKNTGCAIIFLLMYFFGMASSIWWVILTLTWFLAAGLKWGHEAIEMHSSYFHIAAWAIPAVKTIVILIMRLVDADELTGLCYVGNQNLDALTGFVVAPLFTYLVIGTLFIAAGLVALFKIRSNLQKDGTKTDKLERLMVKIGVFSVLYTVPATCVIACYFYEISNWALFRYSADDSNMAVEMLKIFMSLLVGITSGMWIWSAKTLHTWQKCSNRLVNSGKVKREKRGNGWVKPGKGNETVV

binding [1]: binds
binding [2]: binds
B1: eGFP-Wnt5a (ligand, UniProt P41221 62-380)
chain: IIGAQPLCSQLAGLSQGQKKLCHLYQDHMQYIGEGAKTGIKECQYQFRHRRWNCSTVDNTSVFGRVMQIGSRETAFTYAVSAAGVVNAMSRACREGELSTCGCSRAARPKDLPRDWLWGGCGDNIDYGYRFAKEFVDARERERIHAKGSYESARILMNLHNNEAGRRTVYNLADVACKCHGVSGSCSLKTCWLQLADFRKVGDALKEKYDSAAAMRLNSRGKLVQVNSRFNSPTTQDLVYIDPSPDYCVRNESTGSLGTQGRLCNKTSEGMDGCELMCCGRGYDQFKTVQTERCHCKFHWCCYVKCKKCTEIVDQFVCK

binding [1]: binds
binding [2]: binds
B2: eGFP-Wnt16 (ligand, UniProt Q9UBV4 30-365)
chain: NWMWLGIASFGVPEKLGCANLPLNSRQKELCKRKPYLLPSIREGARLGIQECGSQFRHERWNCMITAAATTAPMGASPLFGYELSSGTKETAFIYAVMAAGLVHSVTRSCSAGNMTECSCDTTLQNGGSASEGWHWGGCSDDVQYGMWFSRKFLDFPIGNTTGKENKVLLAMNLHNNEAGRQAVAKLMSVDCRCHGVSGSCAVKTCWKTMSSFEKIGHLLKDKYENSIQISDKTKRKMRRREKDQRKIPIHKDDLLYVNKSPNYCVEDKKLGIPGTQGRECNRTSEGADGCNLLCCGRGYNTHVVRHVERCECKFIWCCYVRCRRCESMTDVHTCK
